Experimental data taken from EPA's CvTdb concentration-time database.
This continues a long series; more values of the same kind are listed elsewhere.

Columns and labels:
Assay in all cases: concentration in plasma after dosing
Rat [1] = conditions: 6 h; dosed: Perfluorooctane Sulfonate; 20 mg/kg; oral; Female; F344
Rat [2] = conditions: dosed: Perfluorooctane Sulfonate, 2 mg/kg, oral, Female, Harlan Sprague Dawley
Rat [3] = conditions: dosed: Perfluorooctane Sulfonate, 20 mg/kg, oral, Male, Harlan Sprague Dawley
Rat [4] = conditions: 1848 h; dosed: Perfluorooctane Sulfonate; 2 mg/kg; oral; Female; Harlan Sprague Dawley
Rat [5] = conditions: 6 h; dosed: Perfluorooctane Sulfonate; 20 mg/kg; oral; Male; Harlan Sprague Dawley
Rat [6] = conditions: dosed: Perfluorooctane Sulfonate, 20 mg/kg, oral, Male, Harlan Sprague Dawley; remark: listed apart in the source
Rat [7] = conditions: dosed: Perfluorodecanoic acid, 2 mg/kg, oral, Male, Harlan Sprague Dawley
Rat [8] = conditions: dosed: Perfluorodecanoic acid, 10 mg/kg, oral, Female, Harlan Sprague Dawley
Rat [9] = conditions: dosed: Perfluorodecanoic acid, 20 mg/kg, oral, Female, Harlan Sprague Dawley
Rat [10] = conditions: 1 h; dosed: Perfluorodecanoic acid; 10 mg/kg; oral; Female; Harlan Sprague Dawley
Rat [11] = conditions: dosed: Perfluorodecanoic acid, 20 mg/kg, oral, Female, Harlan Sprague Dawley; remark: listed apart in the source
Rat [12] = conditions: dosed: Perfluorodecanoic acid, 10 mg/kg, oral, Female, Harlan Sprague Dawley; remark: listed apart in the source
Rat [13] = conditions: dosed: Fluorotelomer alcohol 8+2, 40 mg/kg, oral, Female, Harlan Sprague Dawley
Rat [14] = conditions: 3 h; dosed: Fluorotelomer alcohol 8+2; 40 mg/kg; oral; Female; Harlan Sprague Dawley
Rat [15] = conditions: dosed: Fluorotelomer alcohol 8+2, 48 mg/kg, oral, Male, Harlan Sprague Dawley
Rat [16] = conditions: dosed: Perfluorooctanoic acid, 6 mg/kg, iv, Male, F344
Rat [17] = conditions: dosed: Fluorotelomer alcohol 8+2, 80 mg/kg, oral, Female, Harlan Sprague Dawley
Rat [18] = conditions: dosed: Perfluorooctanoic acid, 40 mg/kg, oral, Male, Harlan Sprague Dawley
Rat [19] = conditions: 1 h; dosed: Fluorotelomer alcohol 8+2; 80 mg/kg; oral; Female; Harlan Sprague Dawley
Rat [20] = conditions: dosed: Perfluorooctanoic acid, 40 mg/kg, oral, Male, Harlan Sprague Dawley; remark: listed apart in the source
Rat [21] = conditions: 96 h; dosed: Perfluorooctanoic acid; 80 mg/kg; oral; Female; Harlan Sprague Dawley
Rat [22] = conditions: 192 h; dosed: Perfluorooctanoic acid; 12 mg/kg; oral; Male; Harlan Sprague Dawley
Rat [23] = conditions: dosed: Perfluorooctanoic acid, 48 mg/kg, oral, Male, Harlan Sprague Dawley
Rat [24] = conditions: 12 h; dosed: Fluorotelomer alcohol 8+2; 80 mg/kg; oral; Female; Harlan Sprague Dawley
Rat [25] = conditions: dosed: Fluorotelomer alcohol 8+2, 40 mg/kg, oral, Female, Harlan Sprague Dawley; remark: listed apart in the source
Rat [26] = conditions: dosed: Fluorotelomer alcohol 8+2, 48 mg/kg, oral, Male, Harlan Sprague Dawley; remark: listed apart in the source
Rat [27] = conditions: dosed: Fluorotelomer alcohol 8+2, 12 mg/kg, oral, Male, Harlan Sprague Dawley
Rat [28] = conditions: 3 h; dosed: Fluorotelomer alcohol 8+2; 48 mg/kg; oral; Male; Harlan Sprague Dawley
Rat [29] = conditions: 6 h; dosed: Fluorotelomer alcohol 8+2; 80 mg/kg; oral; Female; Harlan Sprague Dawley
Rat [30] = conditions: dosed: Perfluorooctanoic acid, 40 mg/kg, oral, Male, Harlan Sprague Dawley; remark: listed apart in the source
Rat [31] = conditions: dosed: Perfluorooctanoic acid, 6 mg/kg, iv, Male, F344; remark: listed apart in the source
Rat [32] = conditions: dosed: Perfluorooctanoic acid, 6 mg/kg, oral, Male, Harlan Sprague Dawley

O=S(=O)([O-])C(F)(F)C(F)(F)C(F)(F)C(F)(F)C(F)(F)C(F)(F)C(F)(F)C(F)(F)F [Perfluorooctane Sulfonate]
Conditions | concentration in plasma [ng/mL]
Rat [1] | 128000
Rat [4] | 1580
Rat [5] | 93200

Conditions | concentration in plasma [ng/mL]
Rat [2], 5 min | 63
Rat [2], 12 h | 7030
Rat [2], 1200 h | 3430
Rat [3], 1 h | 43900
Rat [3], 192 h | 67200
Rat [3], 2520 h | 11200
Rat [6], 1 h | 54400
Rat [6], 528 h | 56700
Rat [6], 2520 h | 4410

O=C(O)C(F)(F)C(F)(F)C(F)(F)C(F)(F)C(F)(F)C(F)(F)C(F)(F)C(F)(F)C(F)(F)F [Perfluorodecanoic acid]
Conditions | concentration in plasma [ng/mL]
Rat [7], 2 h | 6480
Rat [7], 528 h | 4150
Rat [7], 3360 h | 605
Rat [8], 6 h | 47400
Rat [8], 1200 h | 13100
Rat [8], 3360 h | 3900
Rat [9], 0.5 h | 27200
Rat [9], 24 h | 147000
Rat [9], 1848 h | 18300
Rat [11], 12 h | 116000
Rat [11], 1200 h | 28700
Rat [12], 12 h | 61500
Rat [12], 864 h | 19900

Conditions | concentration in plasma [ng/mL]
Rat [10] | 25100

O=C(O)C(F)(F)C(F)(F)C(F)(F)C(F)(F)C(F)(F)C(F)(F)C(F)(F)F [Perfluorooctanoic acid]
Conditions | concentration in plasma [ng/mL]
Rat [13], 0.25 h | 112
Rat [13], 6 h | 897
Rat [15], 0.25 h | 17.8
Rat [15], 6 h | 1930
Rat [16], 0.25 h | 58900
Rat [16], 12 h | 47400
Rat [16], 864 h | 3040
Rat [17], 0.25 h | 149
Rat [17], 24 h | 260
Rat [18], 3 h | 131000
Rat [18], 24 h | 3840
Rat [20], 6 h | 134000
Rat [20], 48 h | 166
Rat [23], 1 h | 152000
Rat [23], 24 h | 230000
Rat [23], 864 h | 13800
Rat [25], 0.5 h | 255
Rat [25], 9 h | 745
Rat [26], 48 h | 2620
Rat [26], 192 h | 1740
Rat [27], 0.75 h | 201
Rat [27], 12 h | 617
Rat [30], 6 h | 140000
Rat [30], 48 h | 217
Rat [31], 3 h | 54700
Rat [31], 192 h | 22900
Rat [32], 3 h | 32700
Rat [32], 192 h | 19900
Rat [32], 1200 h | 2000

Conditions | concentration in plasma [ng/mL]
Rat [14] | 708
Rat [19] | 930
Rat [21] | 285
Rat [22] | 40000
Rat [24] | 325
Rat [28] | 1350
Rat [29] | 1820
